This is one part of the list.

From paper PMC7819943, “Rice protein-binding microarrays: a tool to detect cis-acting elements near promoter regions in rice” come the findings set out here.

The target in the test is T1, OsWOX13 (Oryza sativa, UniProt Q5QMM3 1-267).
T1 sequence: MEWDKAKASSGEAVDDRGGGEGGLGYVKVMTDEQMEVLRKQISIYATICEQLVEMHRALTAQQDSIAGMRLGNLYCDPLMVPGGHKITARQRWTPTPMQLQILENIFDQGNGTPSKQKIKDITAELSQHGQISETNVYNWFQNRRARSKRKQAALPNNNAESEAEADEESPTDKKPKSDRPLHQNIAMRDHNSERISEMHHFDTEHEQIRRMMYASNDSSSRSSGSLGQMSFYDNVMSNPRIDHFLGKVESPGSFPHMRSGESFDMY
As to the kind of experiment: protein-binding microarray (RPBM); PBS, 2% BSA, 51.3 ng/ul salmon testes DNA, 50 uM zinc acetate, 200 nM TF, 25 C, 1 h; high values mean tight binding. The following applies: protein: recombinant; tags: N-terminal polyhistidine and DsRed monomer fusion (pET32a); label: CyDye5-dUTP incorporated in the synthesized complementary strand; 3' TTTTT single-stranded linker to array surface; dsDNA, one strand shown. The essentials:
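Per-feature fluorescence intensity (arbitrary units), read on an Axon 4000B scanner, is the binding signal. Transcription factors carrying an N-terminal polyhistidine tag and DsRed fusion were expressed in E. coli BL21-CodonPlus and purified on Ni–NTA. A custom Agilent array, made double-stranded by primer extension with Cy5-dUTP and blocked with 2% BSA, was incubated with 200 nM protein in PBS, 2% BSA, salmon testes DNA and 50 µM zinc acetate at 25 °C for 1 h and then washed.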
As to “CCAATCAATTATAACCCTTCTTCGTTCACTAATTCCAATACGGAGTCACCTAGTGCAG”, the binding signal was 16000 fluorescence intensity (a.u.). In the case of “ATGTAATTTGGTTCACTATATGATAAAAGGGATCGATGGACGGAGTCACCTAGTGCAG”, the binding signal was 5670 fluorescence intensity (a.u.).

As to “CAGGCCTAATTAATTAAGCTGAGCTCCACTGTCTCCACTCCGGAGTCACCTAGTGCAG”, the binding signal is 34000 fluorescence intensity (a.u.). With “TTGCCTTAATCATAGCACTAATCGCAGTTCTCGACAATAGCGGAGTCACCTAGTGCAG”, the binding signal was 3220 fluorescence intensity (a.u.). Then “GTAATAGACATATTTTGGTTGATCTATCGTATCAATGGATCGGAGTCACCTAGTGCAG”, with 15300 fluorescence intensity (a.u.); and “CGTGCCATAATTGCATAATTTAAACTATTGCATACGTGACCGGAGTCACCTAGTGCAG”, with 24700 fluorescence intensity (a.u.); and “TGTAAGTTAATTAATGTATGTAGATGTAAATTGCTTGGTTCGGAGTCACCTAGTGCAG”, with 28000 fluorescence intensity (a.u.).

With “TCACTAAAATCCCTCAAAATTGATTTTGAGATGAAATAGGCGGAGTCACCTAGTGCAG”, the binding signal was 6900 fluorescence intensity (a.u.).

“CGGCTTAATTAGTCTCAAAAGATTCGTCTCACGGTTTCCACGGAGTCACCTAGTGCAG”: the binding signal was 30500 fluorescence intensity (a.u.). In the case of “GGCACGGCGAACCTCAGCCATCACCTTGTGCATGGCCGTCCGGAGTCACCTAGTGCAG”, the binding signal is 5780 fluorescence intensity (a.u.).

For the sequence “TCATAATAAATTAAGAAAATTGCTAAAAGCCTTGTCGCAACGGAGTCACCTAGTGCAG”, the binding signal was 18300 fluorescence intensity (a.u.). Take “TTTAATTAATAATGTAATAATTATCAAGTTAATCTGATTACGGAGTCACCTAGTGCAG”: the binding signal is 29700 fluorescence intensity (a.u.).

For “CTCTTGTCACTTAATTAATCACAGGAACCGCGGCTAAACACGGAGTCACCTAGTGCAG”, the binding signal was 14500 fluorescence intensity (a.u.). For “GTCTAATCTTATTATAACTAAGTTTAAATTAGTTGTGGCACGGAGTCACCTAGTGCAG”, the binding signal is 11200 fluorescence intensity (a.u.). Then “AAAATCATTTGCATAAACTTTTATCTAGCACGAATGGTTACGGAGTCACCTAGTGCAG”, with 4260 fluorescence intensity (a.u.). For “AAAGTAATTGCAATACCTACATGTTCATAGGTGGTTGCATCGGAGTCACCTAGTGCAG”, the binding signal is 20800 fluorescence intensity (a.u.). Then “ATGCGTGTATTAATTAGTGTCACTCGAGCTAGTCGTCTCGCGGAGTCACCTAGTGCAG”, with 4530 fluorescence intensity (a.u.).

On to “ATAATTGACATCGTTAATTTTAGAGACACATTTAACTATTCGGAGTCACCTAGTGCAG”, for which the binding signal was 42500 fluorescence intensity (a.u.). For “GTATAATAATTTCAAGGATGAAATTTCTAAAGGAGGGAAGCGGAGTCACCTAGTGCAG”, the binding signal was 7880 fluorescence intensity (a.u.). Then “ATAATACCAGTATTTGTAATTAATTGCAACTCAAAGTCTTCGGAGTCACCTAGTGCAG”, with 8890 fluorescence intensity (a.u.); and “CACCCAATTAGTTAAACACAGCCATGCGGGACCCACCTCCCGGAGTCACCTAGTGCAG”, with 8850 fluorescence intensity (a.u.). Then “TCTAATAATTTTCCCGTTCTGGATCCTAAGGAGCACAAGGCGGAGTCACCTAGTGCAG”, with 4400 fluorescence intensity (a.u.).

“CTGATGATGGGCCCTTAAACTTCAATTTAAAGCAAAATGACGGAGTCACCTAGTGCAG”: the binding signal was 6640 fluorescence intensity (a.u.). Turning to “AGATTCAATAATAAATCTTATTGAATGGTGATGTAACTTGCGGAGTCACCTAGTGCAG”, the binding signal was 6350 fluorescence intensity (a.u.).

As to “TGCAATTGAAGATAGATTAAAACTAGTACGGGTCAACGGACGGAGTCACCTAGTGCAG”, the binding signal is 19500 fluorescence intensity (a.u.). For the sequence “TAAGAATGATTGCAGACCCACAATCTTGCACCAACATATGCGGAGTCACCTAGTGCAG”, the binding signal is 20300 fluorescence intensity (a.u.). Then “ATACAAATCAGAAATATACAGATTTTAGGCCATTGTTCACCGGAGTCACCTAGTGCAG”, with 11300 fluorescence intensity (a.u.). In the case of “CTTTGACAGACAGATATCCATTCATACGTGCACAGGCGACCGGAGTCACCTAGTGCAG”, the binding signal was 55300 fluorescence intensity (a.u.). Then “GCACGCTAATTGTTGGTGTACATGGCTCTGTATGCTTACTCGGAGTCACCTAGTGCAG”, with 12200 fluorescence intensity (a.u.); and “AAGAAAATAGATAGATATGAACTTTGATGTGGAGTTTTCACGGAGTCACCTAGTGCAG”, with 4600 fluorescence intensity (a.u.); and “AGTGAAATTACGAGGAAACATACCATGTTCTACGAGAAGGCGGAGTCACCTAGTGCAG”, with 4290 fluorescence intensity (a.u.). Then “AAACTAATAGGTAAATATATATATTAGTATCTATTTACACCGGAGTCACCTAGTGCAG”, with 12400 fluorescence intensity (a.u.); and “GCTGCTCGGATTTGATTGATTGATTGATTGGCGGGTGGTCCGGAGTCACCTAGTGCAG”, with 64500 fluorescence intensity (a.u.); and “AGAATAATTTATATTATGAAACGGAGGGAGTAGTAGTTTACGGAGTCACCTAGTGCAG”, with 6710 fluorescence intensity (a.u.). Then “ACGTGGCTAATTTAACTATGTCTTCATCTGACGTAGCATTCGGAGTCACCTAGTGCAG”, with 10900 fluorescence intensity (a.u.); and “TGATTTGATTAGTATTAATCTTTCTGAAAAGAACAATAAACGGAGTCACCTAGTGCAG”, with 11100 fluorescence intensity (a.u.). Regarding “ACTCAAATTTACAGTGTATTTTCTTGTAAGTTACAGTGTACGGAGTCACCTAGTGCAG”, the binding signal was 5550 fluorescence intensity (a.u.). The same measure for “AAAGAACCAATTGATTGAGCTGGGGCAGTAGCAGTCGTACCGGAGTCACCTAGTGCAG”: 26400 fluorescence intensity (a.u.). Regarding “ACTGACTTGGGACCTAAATTAGACGGTTTTGTATAGTTTACGGAGTCACCTAGTGCAG”, the binding signal was 3180 fluorescence intensity (a.u.).

In the case of “TTCAAAATTACGGAAACTTACATATAAGTTACACTGTAGTCGGAGTCACCTAGTGCAG”, the binding signal is 3200 fluorescence intensity (a.u.). Consider “TTACTAATGGATAATAATCTCTCTCTCTCTCTCTCTCTCTCGGAGTCACCTAGTGCAG”, for which the binding signal was 10300 fluorescence intensity (a.u.). The same measure for “AACTGTGAGTAAAAGGAGATTGATTAGATGATGCGAAGCTCGGAGTCACCTAGTGCAG”: 15900 fluorescence intensity (a.u.).
